Our source for the cell count values is the supplement of paper PMC4604168 (melanoma cell lines).

SMILES strings stand for the structures. The list shows a part of the results. Most values come without repeats; read them as rough.
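Further: cell number obtained by counting DAPI-stained nuclei in high-throughput microscope images with image analysis software, screen run in 1,536-well plates.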

For the experiment, the system named is 501Mel. The experiment can be described thus: cell count relative to DMSO control; melanoma cells; higher = more viable cells. Conditions: library dose: low library concentration; 72 h.
On to `CC1(C)CCC(c2ccc(Cl)cc2)=C(CN2CCN(c3ccc(C(=O)NS(=O)(=O)c4ccc(N[C@H](CCN5CCOCC5)CSc5ccccc5)c(S(=O)(=O)C(F)(F)F)c4)cc3)CC2)C1` + CC1(C)NC(=O)N(c2ccc([N+](=O)[O-])c(C(F)(F)F)c2)C1=O [nilutamide] (first compound 0.4 µM, partner dose 1 µM), for which the cell count was 94.9%.

As for `CC1(C)CCC(c2ccc(Cl)cc2)=C(CN2CCN(c3ccc(C(=O)NS(=O)(=O)c4ccc(N[C@H](CCN5CCOCC5)CSc5ccccc5)c(S(=O)(=O)C(F)(F)F)c4)cc3)CC2)C1` + Nc1ncn([C@H]2C[C@H](O)[C@@H](CO)O2)c(=O)n1 [decitabine] (first compound 0.4 µM, partner dose 0.1 µM), the cell count is 89.6%.

On to `CC1(C)CCC(c2ccc(Cl)cc2)=C(CN2CCN(c3ccc(C(=O)NS(=O)(=O)c4ccc(N[C@H](CCN5CCOCC5)CSc5ccccc5)c(S(=O)(=O)C(F)(F)F)c4)cc3)CC2)C1` + CO[C@H]1C[C@@H]2CC[C@@H](C)[C@@](O)(O2)C(=O)C(=O)N2CCCC[C@H]2C(=O)O[C@H]([C@H](C)C[C@@H]2CC[C@@H](OCCO)[C@H](OC)C2)CC(=O)[C@H](C)/C=C(\C)[C@@H](O)[C@@H](OC)C(=O)[C@H](C)C[C@H](C)/C=C/C=C/C=C/1C [everolimus] (first compound 0.4 µM, partner dose 0.02 µM), for which the cell count came out at 9.9%.

`O=C(/C=C/c1cccnc1)NCCCCC1CCN(C(=O)c2ccccc2)CC1` + Nc1cccc2c1CN(C1CCC(=O)NC1=O)C2=O [lenalidomide] (first compound 0.01 µM, partner dose 1 µM) showed a cell count of 72.1%.

As to `Cc1ccc(Nc2nccc(N(C)c3ccc4c(C)n(C)nc4c3)n2)cc1S(N)(=O)=O` [Pazopanib] + OCCn1cc(-c2cnc3nnn(Cc4ccc5ncccc5c4)c3n2)cn1 [PF04217903] (first compound 0.4 µM, partner dose 1 µM), the cell count was determined as 93.5%.

Take `O=C(/C=C/c1cccnc1)NCCCCC1CCN(C(=O)c2ccccc2)CC1` + C[C@@H]1CCN(C(=O)CC#N)C[C@@H]1N(C)c1ncnc2[nH]ccc12 [CP690550] (first compound 0.01 µM, partner dose 1 µM): the cell count is 81.8%.

Turning to `Cc1ccc(Nc2nccc(N(C)c3ccc4c(C)n(C)nc4c3)n2)cc1S(N)(=O)=O` [Pazopanib] + C#Cc1cccc(Nc2ncnc3cc(OCCOC)c(OCCOC)cc23)c1 [erlotinib] (first compound 0.4 µM, partner dose 0.8 µM), the cell count came to 110%.

Take `O=C(/C=C/c1cccnc1)NCCCCC1CCN(C(=O)c2ccccc2)CC1` + O=C(O)c1ccc(-c2c[nH]c3ncc(-c4ccccc4)cc23)cc1C1CCCC1 [GSK650394] (first compound 0.01 µM, partner dose 0.16 µM): the cell count came out at 84%.

As to `O=C(/C=C/c1cccnc1)NCCCCC1CCN(C(=O)c2ccccc2)CC1` + COc1ccc(Cl)c(Nc2nc3ccccc3nc2NS(=O)(=O)c2cccc(NC(=O)C(C)(C)N)c2)c1 [XL147] (first compound 0.01 µM, partner dose 0.8 µM), the cell count turned out to be 56.2%.

Regarding `O=C(/C=C/c1cccnc1)NCCCCC1CCN(C(=O)c2ccccc2)CC1` + C=CCNC1=C2C[C@@H](C)C[C@H](OC)[C@H](O)[C@@H](C)/C=C(\C)[C@H](OC(N)=O)[C@@H](OC)/C=C\C=C(/C)C(=O)NC(=CC1=O)C2=O [Tanespimycin] (first compound 0.01 µM, partner dose 0.002 µM), the cell count is 81.2%.

`Cc1ccc(Nc2nccc(N(C)c3ccc4c(C)n(C)nc4c3)n2)cc1S(N)(=O)=O` [Pazopanib] + Nc1ncn([C@H]2C[C@H](O)[C@@H](CO)O2)c(=O)n1 [decitabine] (first compound 0.4 µM, partner dose 0.1 µM) returned a cell count of 159%.

`CC1(C)CCC(c2ccc(Cl)cc2)=C(CN2CCN(c3ccc(C(=O)NS(=O)(=O)c4ccc(N[C@H](CCN5CCOCC5)CSc5ccccc5)c(S(=O)(=O)C(F)(F)F)c4)cc3)CC2)C1` + C=C(c1ccc(C(=O)O)cc1)c1cc2c(cc1C)C(C)(C)CCC2(C)C [Bexarotene] (first compound 0.4 µM, partner dose 2 µM): the cell count stood at 45.1%.

In turn, `O=C(/C=C/c1cccnc1)NCCCCC1CCN(C(=O)c2ccccc2)CC1` + C[C@@H](Oc1cc(-c2cnn(C3CCNCC3)c2)cnc1N)c1c(Cl)ccc(F)c1Cl [Crizotinib] (first compound 0.01 µM, partner dose 0.2 µM) registered a cell count of 90.3%.

In the case of `CC1(C)CCC(c2ccc(Cl)cc2)=C(CN2CCN(c3ccc(C(=O)NS(=O)(=O)c4ccc(N[C@H](CCN5CCOCC5)CSc5ccccc5)c(S(=O)(=O)C(F)(F)F)c4)cc3)CC2)C1` + CCCCCCCCc1ccc(CCC(N)(CO)CO)cc1 [fingolimod] (first compound 0.4 µM, partner dose 2 µM), the cell count turned out to be 28.3%.

As to `CC1(C)CCC(c2ccc(Cl)cc2)=C(CN2CCN(c3ccc(C(=O)NS(=O)(=O)c4ccc(N[C@H](CCN5CCOCC5)CSc5ccccc5)c(S(=O)(=O)C(F)(F)F)c4)cc3)CC2)C1` + Cn1cncc1[C@@](N)(c1ccc(Cl)cc1)c1ccc2c(c1)c(-c1cccc(Cl)c1)cc(=O)n2C [tipifarnib] (first compound 0.4 µM, partner dose 0.01 µM), the cell count amounted to 84.9%.

Regarding `O=C(/C=C/c1cccnc1)NCCCCC1CCN(C(=O)c2ccccc2)CC1` + Cn1sc(=O)n(Cc2ccccc2)c1=O [TDZD-8] (first compound 0.01 µM, partner dose 0.4 µM), the cell count worked out at 66.9%.

As for `Cc1ccc(Nc2nccc(N(C)c3ccc4c(C)n(C)nc4c3)n2)cc1S(N)(=O)=O` [Pazopanib] + CS(=O)(=O)c1ccc(C(=O)Nc2ccc(Cl)c(-c3ccccn3)c2)c(Cl)c1 [vismodegib] (first compound 0.4 µM, partner dose 1 µM), the cell count is 84.9%.

Molecule `O=C(/C=C/c1cccnc1)NCCCCC1CCN(C(=O)c2ccccc2)CC1` + CN(C)S(=O)(=O)c1ccc2c(c1)/C(=C/c1cc3c([nH]1)CCCC3)C(=O)N2 [SU6656] (first compound 0.01 µM, partner dose 0.4 µM) came in with a cell count of 82.9%.

Molecule `O=C(/C=C/c1cccnc1)NCCCCC1CCN(C(=O)c2ccccc2)CC1` + COc1cc(Nc2ncc(F)c(Nc3ccc4c(n3)NC(=O)C(C)(C)O4)n2)cc(OC)c1OC [Tamatinib] (first compound 0.01 µM, partner dose 0.4 µM) gave a cell count of 78.2%.

On to `CC1(C)CCC(c2ccc(Cl)cc2)=C(CN2CCN(c3ccc(C(=O)NS(=O)(=O)c4ccc(N[C@H](CCN5CCOCC5)CSc5ccccc5)c(S(=O)(=O)C(F)(F)F)c4)cc3)CC2)C1` + O=C(O)c1ccc2c(c1)nc(Nc1cccc(Cl)c1)c1ccncc12 [CX4945] (first compound 0.4 µM, partner dose 0.4 µM), for which the cell count was determined as 94.5%.

`Cc1ccc(Nc2nccc(N(C)c3ccc4c(C)n(C)nc4c3)n2)cc1S(N)(=O)=O` [Pazopanib] + C[C@@H]1CCN(C(=O)CC#N)C[C@@H]1N(C)c1ncnc2[nH]ccc12 [CP690550] (first compound 0.4 µM, partner dose 1 µM): the cell count was determined as 85.5%.

`Cc1ccc(Nc2nccc(N(C)c3ccc4c(C)n(C)nc4c3)n2)cc1S(N)(=O)=O` [Pazopanib] + Nc1nc(F)nc2c1ncn2[C@@H]1O[C@H](CO)[C@@H](O)[C@@H]1O [fludarabine] (first compound 0.4 µM, partner dose 0.2 µM): the cell count was 0.32%.

With `O=C(/C=C/c1cccnc1)NCCCCC1CCN(C(=O)c2ccccc2)CC1` + Cn1nnc2c(C(N)=O)ncn2c1=O [temozolomide] (first compound 0.01 µM, partner dose 2 µM), the cell count was 76.7%.

Molecule `O=C(/C=C/c1cccnc1)NCCCCC1CCN(C(=O)c2ccccc2)CC1` + CO[C@H]1C[C@@H]2CC[C@@H](C)[C@@](O)(O2)C(=O)C(=O)N2CCCC[C@H]2C(=O)O[C@H]([C@H](C)C[C@@H]2CC[C@@H](OCCO)[C@H](OC)C2)CC(=O)[C@H](C)/C=C(\C)[C@@H](O)[C@@H](OC)C(=O)[C@H](C)C[C@H](C)/C=C/C=C/C=C/1C [everolimus] (first compound 0.01 µM, partner dose 0.02 µM) showed a cell count of 46.1%.

Regarding `O=C(/C=C/c1cccnc1)NCCCCC1CCN(C(=O)c2ccccc2)CC1` + CN(c1ncccc1CNc1nc(Nc2ccc3c(c2)CC(=O)N3)ncc1C(F)(F)F)S(C)(=O)=O [PF562271] (first compound 0.01 µM, partner dose 0.08 µM), the cell count came out at 48%.

For `Cc1ccc(Nc2nccc(N(C)c3ccc4c(C)n(C)nc4c3)n2)cc1S(N)(=O)=O` [Pazopanib] + C[C@]1(c2nc3c(C(N)=O)cccc3[nH]2)CCCN1 [Veliparib] (first compound 0.4 µM, partner dose 1.4 µM), the cell count amounted to 78.4%.

In turn, `Cc1ccc(Nc2nccc(N(C)c3ccc4c(C)n(C)nc4c3)n2)cc1S(N)(=O)=O` [Pazopanib] + CN(c1ncccc1CNc1nc(Nc2ccc3c(c2)CC(=O)N3)ncc1C(F)(F)F)S(C)(=O)=O [PF562271] (first compound 0.4 µM, partner dose 0.08 µM) showed a cell count of 109%.

Molecule `CC1(C)CCC(c2ccc(Cl)cc2)=C(CN2CCN(c3ccc(C(=O)NS(=O)(=O)c4ccc(N[C@H](CCN5CCOCC5)CSc5ccccc5)c(S(=O)(=O)C(F)(F)F)c4)cc3)CC2)C1` + CN1CCN(c2ccc3nc(-c4c(N)c5c(F)cccc5[nH]c4=O)[nH]c3c2)CC1 [Dovitinib] (first compound 0.4 µM, partner dose 0.1 µM) gave a cell count of 88.6%.
